93 molecules from PubChem BioAssay AID360 (National Center for Advancing Translational Sciences (NCATS), 2006) can be followed below.

Out of some 48,000 compounds screened, about 550 (1.1%) were called active. Inconclusive results (about 4%) are left out. No stated cut-off is given here; in the data, active means potency below about 15 µM; inconclusive means mostly about 16 µM to 33 µM; inactive means weaker than that. The list shows a part of the results.
Potency means the concentration at half of the fitted maximal effect.

For the assay, the target named is Lysosomal acid glucosylceramidase (Homo sapiens) (UniProt P04062). Nature of the assay: Glucocerebrosidase.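 Further: the screen sought inhibitors.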 Particulars: purified enzyme, resorufin glucoside fluorescence (screen aimed at inhibitors), 20 min. In a few lines: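 Normal human glucocerebrosidase (0.2 nM final) was assayed with resorufin β-D-glucopyranoside (30 uM final) in 50mM citric acid/KH2PO4, 10mM sodium taurocholate, 0.01% tween-20, pH 5.9. Compounds were titrated; fluorescence (Ex 548, Em 600) read after 20 min at RT.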
UniProt P04062, sequence (P04062 whole entry, looked up): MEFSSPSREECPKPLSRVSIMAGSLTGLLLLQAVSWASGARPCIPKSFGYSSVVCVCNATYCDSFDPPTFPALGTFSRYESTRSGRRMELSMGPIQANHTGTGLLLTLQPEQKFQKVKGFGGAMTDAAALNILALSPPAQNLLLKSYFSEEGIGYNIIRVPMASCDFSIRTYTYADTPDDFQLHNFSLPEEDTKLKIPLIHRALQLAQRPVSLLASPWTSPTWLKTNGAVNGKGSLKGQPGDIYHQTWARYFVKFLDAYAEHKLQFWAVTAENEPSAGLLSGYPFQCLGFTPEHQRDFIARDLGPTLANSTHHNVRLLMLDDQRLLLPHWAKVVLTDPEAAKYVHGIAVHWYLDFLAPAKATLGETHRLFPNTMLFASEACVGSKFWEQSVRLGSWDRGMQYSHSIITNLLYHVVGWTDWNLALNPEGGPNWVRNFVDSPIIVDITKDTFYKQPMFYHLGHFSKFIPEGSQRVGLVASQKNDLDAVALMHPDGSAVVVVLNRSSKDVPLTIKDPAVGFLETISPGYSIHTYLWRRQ
Regarding `Cc1nn(-c2ccccc2)c2sc(C(=O)NC3CCCCC3)cc12`, the Potency is inactive: > 76.9 µM. Next, `Cc1nc(N2C(=O)C(=O)/C(=C(/O)c3ccccc3)C2c2ccco2)sc1C` (stereo not drawn): inactive: > 76.9 µM. Next, `Nc1nnc(SCC(=O)NCc2ccc3c(c2)OCO3)s1`: inactive: > 76.9 µM; `Cc1ccc(N2C(=O)c3ccc(N)cc3C2=O)cc1C`: inactive: > 76.9 µM; `COc1cc2cc(CN(CCCO)S(=O)(=O)c3ccccc3Cl)c(=O)[nH]c2cc1OC`: inactive: > 76.9 µM.

Take `CCCCn1c(N)c(N(CCC(C)C)C(=O)CSc2nnc(C)s2)c(=O)[nH]c1=O`: the Potency was inactive: > 76.9 µM. On to `O=C(CSc1nnc(-c2ccccc2F)n1C1CCCCC1)N1CCCC1`, for which the Potency is inactive: > 76.9 µM.

As to `Cc1ccc(-c2[nH]nc3c2C(c2ccoc2)C(C#N)=C(N)O3)cc1C` (stereo not drawn), the Potency is inactive: > 76.9 µM. To `O=C(O)CSc1nnc(-c2cccs2)n1-c1ccc(Cl)cc1` belongs inactive: > 76.9 µM; to `Cc1cc(C)c2cc(CN(Cc3ccco3)C(=O)NCc3ccccc3)c(=O)[nH]c2c1`, inactive: > 76.9 µM.

Turning to `CC1(C(=O)O)CCC(C(=O)Nc2ccccc2)C1(C)C` (stereo not drawn), the Potency is inactive: > 76.9 µM. As for `COC(=O)c1nc(NC(C)=O)n[nH]1`, the Potency is inactive: > 76.9 µM. Take `CCOC(=O)C1=C(C)NC(=O)NC1c1ccc(OC(C)C(=O)O)c(OC)c1` (stereo not drawn): the Potency was inactive: > 76.9 µM.

Take `O=C(Nc1cc(Cl)ccc1O)c1cc2n(n1)C(C(F)(F)F)CC(c1ccc3c(c1)OCO3)N2` (stereo not drawn): the Potency is inactive: > 76.9 µM.

As for `O=c1cc(-c2ccccc2)nc2nc(SCc3ccccc3)[nH]n12`, the Potency is inactive: > 76.9 µM.

Regarding `COc1ccc(OCCSc2nnc(-c3ccoc3C)n2C)cc1`, the Potency is inactive: > 76.9 µM. Next, `CNC(=O)Nc1ccccc1NC(=O)NC`: inactive: > 76.9 µM; `Cc1ccc(-c2nc3s/c(=C\c4ccco4)c(=O)n3n2)cc1`: inactive: > 76.9 µM; `Cc1nnc(SCc2nnc(-c3ccccc3Br)o2)n1-c1ccccc1`: inactive: > 76.9 µM. Next, `Cn1ccnc1-c1nc2ccccc2[nH]c1=O`: inactive: > 76.9 µM; `c1ccc(-c2nn3nnnc3c3ccccc23)cc1`: inactive: > 76.9 µM; `CN1CCN(c2ccccc2NS(=O)(=O)c2ccc3c(c2)CCN3C(=O)C2CCC2)CC1`: “inactive”.

Consider `CCc1ccc(C(=O)N2CCN(c3ccc(F)cc3)CC2)s1`, for which the Potency was inactive: > 76.9 µM.

On to `Cc1nc(C)c(C(=O)Nc2cccc(Cl)c2)o1`, for which the Potency is inactive: > 76.9 µM.

In the case of `COc1ccc(C(=O)Nc2ccccc2)cc1S(=O)(=O)Nc1cc(C)on1`, the Potency is inactive: > 76.9 µM. Next, `CCC1Oc2ccccc2N(CC(=O)NCCN2C(C)CCCC2C)C1=O` (stereo not drawn): inactive: > 76.9 µM; `CN(CC(=O)NC1CCCCC1)S(=O)(=O)c1ccc(Br)s1`: inactive: > 76.9 µM. Next, `CC(OC(=O)C(NC(=O)c1ccco1)C(C)C)C(=O)Nc1ncc(Cl)cc1Cl` (stereo not drawn): inactive: > 76.9 µM; `Cc1cc(NC(=O)c2cc(Cl)ccc2Cl)no1`: inactive: > 76.9 µM. Next, `CCOC(=O)c1sc(=NC(=O)c2ccc(S(=O)(=O)N3CC(C)OC(C)C3)cc2)n(C)c1C` (stereo not drawn): inactive: > 76.9 µM. On to `CCOC(=O)N1CCN(C(=O)C2CCN(S(=O)(=O)N3CCCC3)CC2)CC1`, for which the Potency was inactive: > 76.9 µM.

Turning to `O=C(c1cc(=O)c2ccccc2o1)N1CCCc2ccccc21`, the Potency was inactive: > 76.9 µM. On to `COc1ccc(C)cc1NCc1cccc(OC)c1OC`, for which the Potency was inactive: > 76.9 µM.

For `Cc1oc(-c2nc3ccccc3n2C)cc1C(=O)c1ccccc1`, the Potency is inactive: > 76.9 µM. To `O=C(O)c1sccc1S(=O)(=O)c1ccccc1` belongs inactive: > 76.9 µM; to `COc1ccc(NC(=O)CSc2nccn2-c2cccc(OC)c2)cc1`, inactive: > 76.9 µM. Take `O=C(NCc1ccco1)Nc1ccccc1Cl`: the Potency was inactive: > 76.9 µM. To `Oc1ccccc1Nc1ncnc2c1oc1ccccc12` belongs inactive: > 76.9 µM; to `O=C1[C@@H]2[C@H](Cc3ccc(O)cc3)N[C@]3(C(=O)Nc4ccccc43)[C@@H]2C(=O)N1c1ccc(F)cc1`, inactive: > 76.9 µM. To `CCOC(=O)C1CCN(C(=O)COC(=O)COc2ccccc2OC)CC1` belongs inactive: > 76.9 µM. Next, `CSc1ccc(C2Nc3ccccc3-c3cc(C)nn32)cc1` (stereo not drawn): inactive: > 76.9 µM.

In the case of `Cc1onc(-c2ccccc2Cl)c1C(=O)NCc1cccs1`, the Potency is inactive: > 76.9 µM. To `COc1ccccc1CNC(=O)COC(=O)c1cnccn1` belongs inactive: > 76.9 µM; to `Cc1cc(C(=O)COc2nncc3ccccc23)c(C)n1C`, inactive: > 76.9 µM; to `Cc1cc(C)c(NC(=O)C2CCCN2CCO)c(C)c1` (stereo not drawn), inactive: > 76.9 µM.

With `O=C(NCc1ccc(F)cc1)C1CCC(=O)N1C1CCCCC1` (stereo not drawn), the Potency was inactive: > 76.9 µM.

As for `C=CCc1c(C)nc2c(C(=O)O)cnn2c1C`, the Potency is inactive: > 76.9 µM. Next, `CC(C)OCCCNC(=O)CNC(=O)c1cccs1`: inactive: > 76.9 µM; `CN(C)CCNc1nc2c(c(=O)[nH]c(=O)n2C)n1CC(O)COc1ccc(Cl)cc1Cl` (stereo not drawn): inactive: > 76.9 µM; `CC(NS(C)(=O)=O)C(c1cccs1)N1CCN(C)CC1` (stereo not drawn): inactive: > 76.9 µM. To `CC(C)Oc1ccc(N2CC(C(=O)Nc3ccccc3F)CC2=O)cc1` (stereo not drawn) belongs inactive: > 76.9 µM.

Regarding `Cc1nc(N2CCN(C)CC2)[nH]c(=O)c1Cc1cccc2ccccc12`, the Potency result was “inactive”.

Take `COc1c(C)cc(Br)cc1C(=O)O`: the Potency is inactive: > 76.9 µM. Consider `CCn1c2ccccc2c2nnc(SCc3cc(=O)n4ccsc4n3)nc21`, for which the Potency was inactive: > 76.9 µM. To `COc1ccc(CCNC(=O)CSc2nc3c(c(=O)n(C)c(=O)n3C)n2C(C)C)cc1OC` belongs inactive: > 76.9 µM; to `Cc1ccc2c(c1)N(CCCC(=O)NCCC1=CCCCC1)C(=O)CO2`, inactive: > 76.9 µM; to `CS(=O)(=O)NC1CCN(Cc2ccccc2)CC1`, inactive: > 76.9 µM.

For the molecule `CC1=C(Sc2ccccn2)C(=O)NC(C)(C)C1`, the Potency is inactive: > 76.9 µM. To `CC(C)NC(=O)CN(C)S(=O)(=O)c1ccc(F)cc1` belongs inactive: > 76.9 µM; to `COC(=O)c1ccccc1OCC(=O)NC1CCCCC1`, inactive: > 76.9 µM. To `O=S(=O)(c1cccc2nsnc12)N1CCc2ccccc2C1` belongs inactive: > 76.9 µM; to `Cc1ccc(NC(=O)CN(C)S(=O)(=O)c2cccc3nsnc23)cc1C`, inactive: > 76.9 µM; to `COc1ccc(-c2nnc(SCCc3ccccc3)n2N)cc1`, inactive: > 76.9 µM. Consider `Cc1cc(Nc2ncc(Cl)cc2Cl)n[nH]1`, for which the Potency is inactive: > 76.9 µM. To `COCCCNC(=O)Cn1cc(C(=O)C2CC2)c2ccccc21` belongs inactive: > 76.9 µM. Next, `O=C(Nc1cccc2c1CCCC2)C1CCCN(S(=O)(=O)c2cccc3nonc23)C1` (stereo not drawn): inactive: > 76.9 µM; `O=C(CN1CCN(c2ccccn2)CC1)N1c2ccccc2CCc2ccccc21`: inactive: > 76.9 µM. Next, `Cc1ccc(-c2noc(C3CCN(S(C)(=O)=O)CC3)n2)o1`: inactive: > 76.9 µM.

Take `Nc1nc(-c2ccco2)c(-c2ccco2)s1`: the Potency is inactive: > 76.9 µM.

For the molecule `COc1ccc(-c2cc(C(=O)Nc3cccc(C(C)=O)c3)no2)cc1`, the Potency is inactive: > 76.9 µM. Next, `Cc1cc(C)n(CCc2nc(-c3cc4ccccc4o3)cs2)n1`: inactive: > 76.9 µM; `O=C1c2ccccc2-c2ncnc3cccc1c23`: inactive: > 76.9 µM.

With `CCOc1ccccc1OCCCC(=O)N1CCN(S(=O)(=O)c2ccc(C)cc2)CC1`, the Potency was inactive: > 76.9 µM. Next, `Cc1cc(NC(=O)Cn2cnc3c2c(=O)n(C)c(=O)n3C)n(-c2ccccc2)n1`: inactive: > 76.9 µM; `Cc1cc(NC(=O)Cn2nc(C(F)(F)F)c3c2CCCC3)no1`: inactive: > 76.9 µM. Take `O=S(=O)(NC1=NCCC1)c1cccs1`: the Potency was inactive: > 76.9 µM. `CCOC(=O)C(C)n1cnc2c(nnn2Cc2ccc(C)cc2)c1=O` (stereo not drawn): the Potency was inactive: > 76.9 µM. On to `N#C/C(=C(/O)COC(=O)CCC1CCCCC1)c1nc2ccccc2[nH]1`, for which the Potency was inactive: > 76.9 µM. To `Cc1cc(=O)[nH]c(SCC(=O)NCc2ccco2)n1` belongs inactive: > 76.9 µM; to `Cc1nn(-c2ccccc2)c2c1C(c1ccco1)C(C#N)=C(N)O2` (stereo not drawn), inactive: > 76.9 µM. To `CCOC(=O)N1CCN(C(=O)CN2C(=O)COc3ccc(C(C)(C)C)cc32)CC1` belongs inactive: > 76.9 µM; to `CCOC(=O)Cn1c2c(c(=N)c3c1CCC3)CCC2`, inactive: > 76.9 µM; to `CC(=O)N1CCN(C(=O)CNc2cc(C(F)(F)F)ccc2OCC(F)(F)F)CC1`, inactive: > 76.9 µM. Next, `CC1CCCCC1NC(=O)Cn1nnc(-c2ccc(Cl)cc2)n1` (stereo not drawn): inactive: > 76.9 µM; `COCC(=O)Nc1nnc(CCc2ccccc2)s1`: inactive: > 76.9 µM. Take `CCOC(=O)Cn1nnnc1C(CC)N(Cc1cccs1)Cc1cc2ccc(OC)cc2[nH]c1=O` (stereo not drawn): the Potency was inactive: > 76.9 µM. Next, `CC(=O)OC(C(=O)NC1CCCCC1)c1ccc(C)cc1` (stereo not drawn): inactive: > 76.9 µM.

Regarding `COC(=O)c1ccc(NC(=O)C2C3C=CC(O3)C2C(=O)O)cc1` (stereo not drawn), the Potency was inactive: > 76.9 µM.

`CCOc1cc(C)c(S(=O)(=O)N2CCCC2)cc1C`: the Potency was inactive: > 76.9 µM. Next, `CC(=O)Nc1ccc2c(c1)n(C)c(=O)n2C`: inactive: > 76.9 µM. Regarding `Cc1ccc(S(=O)(=O)N2CCN(C(=O)CSC3CCCC3)CC2)c(C)c1`, the Potency is inactive: > 15.4 µM. With `CCOC(=O)CC(N)c1ccc2c(c1)OCO2` (stereo not drawn), the Potency was inactive: > 76.9 µM.

Consider `O=C(c1cc(-c2cccnc2)nc2ccc(Br)cc12)N1CCN(c2ncccn2)CC1`, for which the Potency is inactive: > 76.9 µM.
